This note sets out measurements from paper PMC4336329 (PLoS ONE, 2015).

Among all 310,000 compounds or so, about 14,000 (4.5%) showed an effect of 50% or more. Effects have a minus sign here. Some of the results follow.
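Note: peak tail current of the secondary pulse compared with the same well before compound.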

In the test the target is human ether-à-go-go-related gene (hERG) potassium channel (human, UniProt Q12809). As to the kind of experiment: primary screen, population patch clamp on CHO cells stably expressing hERG.
Chain of human ether-à-go-go-related gene (hERG) potassium channel (Q12809 whole entry, looked up): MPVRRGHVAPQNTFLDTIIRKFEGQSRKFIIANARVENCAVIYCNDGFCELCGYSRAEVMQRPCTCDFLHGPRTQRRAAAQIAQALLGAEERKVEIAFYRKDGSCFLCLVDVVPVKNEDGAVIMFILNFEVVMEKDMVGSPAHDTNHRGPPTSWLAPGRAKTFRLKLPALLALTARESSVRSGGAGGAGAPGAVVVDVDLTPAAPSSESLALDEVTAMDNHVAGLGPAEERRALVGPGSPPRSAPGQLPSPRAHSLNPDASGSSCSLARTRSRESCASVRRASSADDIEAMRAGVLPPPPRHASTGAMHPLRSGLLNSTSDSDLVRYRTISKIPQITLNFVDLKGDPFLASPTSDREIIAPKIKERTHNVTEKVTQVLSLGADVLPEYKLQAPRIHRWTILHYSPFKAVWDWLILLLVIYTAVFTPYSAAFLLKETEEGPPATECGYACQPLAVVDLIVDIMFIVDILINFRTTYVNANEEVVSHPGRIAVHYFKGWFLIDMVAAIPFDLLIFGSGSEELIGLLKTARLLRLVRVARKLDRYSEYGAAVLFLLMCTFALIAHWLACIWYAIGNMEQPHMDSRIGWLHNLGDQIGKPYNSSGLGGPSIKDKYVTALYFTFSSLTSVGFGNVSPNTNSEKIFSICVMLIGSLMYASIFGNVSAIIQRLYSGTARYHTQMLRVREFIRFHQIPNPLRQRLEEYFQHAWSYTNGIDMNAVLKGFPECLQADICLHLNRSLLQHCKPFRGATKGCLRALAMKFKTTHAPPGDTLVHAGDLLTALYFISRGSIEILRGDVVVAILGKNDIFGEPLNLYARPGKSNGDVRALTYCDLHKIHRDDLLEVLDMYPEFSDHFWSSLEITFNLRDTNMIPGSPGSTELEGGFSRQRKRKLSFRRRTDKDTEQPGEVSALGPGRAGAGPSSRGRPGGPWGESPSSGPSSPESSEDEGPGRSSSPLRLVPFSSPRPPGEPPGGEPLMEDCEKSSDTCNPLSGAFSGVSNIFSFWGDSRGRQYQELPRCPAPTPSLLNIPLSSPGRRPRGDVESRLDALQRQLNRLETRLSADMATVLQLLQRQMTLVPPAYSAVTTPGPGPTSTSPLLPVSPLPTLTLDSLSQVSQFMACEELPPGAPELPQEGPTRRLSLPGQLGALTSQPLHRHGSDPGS
With `CCCSc1nnc(Cn2c(=O)sc3ccccc32)n1C`, the “hERG current change (%, negative = inhibition) at 10uM” value is given as -1.25%.

`COc1c(C)cc(Br)cc1C(=O)NCc1cccnc1`: the “hERG current change (%, negative = inhibition) at 10uM” value is on record as -17.9%.

As for `CC12CCC3C(CCC4C/C(=N/O)CCC43C)C1CCC2O` (centres unmarked), the “hERG current change (%, negative = inhibition) at 10uM” value was -16.6%. For `O=C(CC(SCCO)c1ccc(F)cc1)c1ccco1` (centres unmarked) the value was 3.4%; for `O=C(CCn1c(=O)c2ccccc2n(CC(=O)NCCC2=CCCCC2)c1=O)NCc1ccco1`, -3.77%; for `CN(C)S(=O)(=O)c1cccc(N=c2scc(-c3ccc4c(c3)NC(=O)CO4)n2CC2CCCO2)c1` (centres unmarked), -43.5%. The value for `CC(=O)Cc1nsc(NC(=O)c2ccc(COc3ccccc3)o2)n1` was -9.81%. Take `COc1ccccc1C(=O)NC(=S)Nc1cccc2cc(O)ccc12`: the “hERG current change (%, negative = inhibition) at 10uM” value came out at 15.6%. For `Cc1ccc(NC(=O)N2CCC(NC(=O)c3cccc(C)c3)CC2)cc1` the value was -4.37%; for `Cc1nnc(NC(=O)CSc2nc3c(c(=O)n2C)SC(C)C3)s1` (centres unmarked), 4.1%.

In the case of `Cc1cc(C)c2c(N=NN3CCCCC3)[nH]nc2n1`, the “hERG current change (%, negative = inhibition) at 10uM” value is -24.8%. For `O=C(c1cnc2ccc3ccccc3c2c1)c1cc(F)ccc1O` the value was 13.6%; for `O=C(NCCCn1ccnc1)c1ccc(NS(=O)(=O)c2cccc([N+](=O)[O-])c2)cc1`, -4.07%. As to `CC(C(=O)NC(=O)NC1CCCCC1)N1CCN(c2ccc(O)cc2)CC1` (centres unmarked), the “hERG current change (%, negative = inhibition) at 10uM” value is reported as -33.6%. The value for `O=C(COC(=O)c1ccc2ccccc2n1)Nc1ncc(C(F)(F)F)cc1Cl` was -2.24%; that for `CCC(=O)Nc1ccc2c(c1)nc(CCNC(=O)c1ccco1)n2C` was 19%. On to `CCc1ccccc1NS(=O)(=O)c1ccc(SC)cc1`, for which the “hERG current change (%, negative = inhibition) at 10uM” value was found to be 14.9%.

On to `CCOc1ccc(CCNC(=O)COC(=O)C2CCN(S(=O)(=O)c3ccc(C)c(C)c3)CC2)cc1OCC`, for which the “hERG current change (%, negative = inhibition) at 10uM” value is given as -16.3%. The value for `Cc1cc(NC(=O)Cn2c(C)nc3ccccc3c2=O)ccc1Br` was -8.17%; that for `COc1ccc(C)cc1NC(=O)NCc1ccccn1` was 8.33%; that for `CCC(=O)Nc1nc2ccc(NC(C)=O)cc2s1` was -1.01%.

For the molecule `COc1ccc(NC(=O)C2CCC(C(C)(C)C)CC2)cc1S(=O)(=O)N1CCOCC1` (centres unmarked), the “hERG current change (%, negative = inhibition) at 10uM” value is given as -24.5%. In the case of `CCCn1c(SCC(=O)NC23CC4CC(CC(C4)C2)C3)n[nH]c1=O`, the “hERG current change (%, negative = inhibition) at 10uM” value was determined as 1.76%. For `O=C(O)CCC(=O)N1N=C(c2cccs2)CC1c1cccc([N+](=O)[O-])c1` (centres unmarked) the value was 20%; for `O=C(NCCc1ccc(C(F)(F)F)cc1)C1CCC(=O)N(C2CC2)C1` (centres unmarked), -2.94%. Regarding `Cc1cc(NC(=O)c2cccc(F)c2)no1`, the “hERG current change (%, negative = inhibition) at 10uM” value was -10.6%. For `O=C(O)C1CCCN(S(=O)(=O)c2cccc3cccnc23)C1` (centres unmarked) the value was 10.9%; for `CC(=O)C1=C(O)C(=O)N(c2ccccn2)C1c1cccc(F)c1` (centres unmarked), 13%. In the case of `Cc1ccc(C)c(C(=O)CSc2n[nH]c(C(C)C)n2)c1`, the “hERG current change (%, negative = inhibition) at 10uM” value is 13%.

`O=C(CCC(=O)N/N=C/c1ccc(Br)s1)NCc1ccccc1`: the “hERG current change (%, negative = inhibition) at 10uM” value is recorded as 5.19%. For `O=C1CC(c2cc([N+](=O)[O-])ccc2Cl)c2c(ccc3ccccc23)N1` (centres unmarked) the value was -42.3%; for `O=C1ON=C(c2ccc(Cl)cc2)/C1=C/c1ccc(O)cc1`, 16.1%. For `O=c1[nH]c(=O)n(Cc2ccc(Oc3ccccc3)cc2)cc1Br` the value was -1.61%. For `Cc1c(N=Cc2c(O)n(C)c(=O)[nH]c2=O)c(=O)n(-c2ccccc2)n1C` the value was 11%; for `CCCC(=O)N1CCCC(C(=O)c2ccc(OC)c(OC)c2)C1` (centres unmarked), 12.7%; for `COC(=O)C1=C(C)N(Cc2ccccc2)C(=NCCCCO)N[C@H]1CCc1ccccc1`, -43.3%.

As for `c1ccc2c(Cn3nnc4ccccc43)cccc2c1`, the “hERG current change (%, negative = inhibition) at 10uM” value amounted to 2.08%.

For `O=C(CN1CCCCC1)Nc1cccc(Oc2ccccc2)c1`, the “hERG current change (%, negative = inhibition) at 10uM” value was -50.7%. For `CC(C)[C@H](Nc1ccc(S(=O)(=O)N2CCOCC2)cc1[N+](=O)[O-])C(=O)OCC(N)=O` the value was 4.33%; for `Cc1cc(-c2ccc([N+](=O)[O-])cc2)nc2ccccc12.Cl`, 9.23%; for `CC/C(=N/NC(=O)c1ccc(Br)o1)c1ccc(Cl)cc1`, 7.8%.

Regarding `Cc1onc(-c2ccccc2)c1C(=O)Nc1ccc(N2CCOCC2)cc1`, the “hERG current change (%, negative = inhibition) at 10uM” value was found to be 4.4%. For `CC(C)N=C(Nc1ccc(Cl)cc1)c1cccnc1` the value was 0.664%; for `COc1ccc(CNC(=O)CN(Cc2ccco2)C(=O)CCC(=O)Nc2ccccn2)cc1`, -43.2%; for `CCn1cc(C(=O)O)c(=O)c2cc(F)c(N/N=C/c3ccccc3)cc21`, -27.2%. The value for `O=C(O)C(=O)O.c1ccc(Cc2ccc(OCCCNC3CCCC3)cc2)cc1` was -58.9%.

In the case of `CCC(CO)NC1=CC(=O)CCC1` (centres unmarked), the “hERG current change (%, negative = inhibition) at 10uM” value is listed as 9.74%.

In the case of `Cc1cccc(C(=O)NC2CCN(CC(=O)NCc3cccs3)CC2)c1`, the “hERG current change (%, negative = inhibition) at 10uM” value is given as -39.3%.

On to `COc1ccc(N2CC(C(=O)NC3CCCCC3)CC2=O)cc1` (centres unmarked), for which the “hERG current change (%, negative = inhibition) at 10uM” value was 5.46%. On to `O=C(C1CCCCC1)N1CCC(CO)(Cc2ccccc2Cl)CC1`, for which the “hERG current change (%, negative = inhibition) at 10uM” value is recorded as -15.3%.

Turning to `COc1ccc(C(=O)NNC(=O)CSc2nc3c(c(=O)n(C)c(=O)n3C)n2C)cc1`, the “hERG current change (%, negative = inhibition) at 10uM” value was -2.04%. On to `Cc1ccc(OCc2cc(C(=O)NCCn3cccn3)no2)cc1C`, for which the “hERG current change (%, negative = inhibition) at 10uM” value is on record as -3.81%.

For `COc1ccc(CCNC(=O)CCCCCNc2nc(=S)[nH]c3ccccc23)cc1OC`, the “hERG current change (%, negative = inhibition) at 10uM” value is reported as -31%. The value for `COc1ccccc1OCCC(=O)OCC(=O)Nc1ccc(Br)cc1` was -2.01%; that for `O=C(Nc1ccc(S(=O)(=O)N2CCCCCC2)cc1)c1ccco1` was -72.5%; that for `COc1cc(NC(=O)c2cccc([N+](=O)[O-])c2)ccc1NC(=O)c1ccco1` was -17.8%. The value for `CCOc1ccc(N(CC(=O)NC2CCCCC2)C(=O)CCC(=O)Nc2ccccn2)cc1` was -23.3%.

Consider `NS(=O)(=O)c1ccc(CCNC(=O)CNS(=O)(=O)c2cccc(Br)c2)cc1`, for which the “hERG current change (%, negative = inhibition) at 10uM” value is listed as 13.2%. `COc1ccc(Br)cc1CN1CCN(Cc2c[nH]c3ccccc23)CC1.O=C(O)C(=O)O`: the “hERG current change (%, negative = inhibition) at 10uM” value is on record as -29.2%. For `Cc1cc(N2CCCCC2)nc(N2CCOCC2)n1` the value was -15.2%; for `COC(=O)[C@H](CC(C)C)NCc1cccc(CN[C@@H](CC(C)C)C(=O)OC)c1`, -10.4%.

For `CCC(=O)N1c2ccccc2NC2=C(C(=O)CCC2)C1c1cccnc1` (centres unmarked), the “hERG current change (%, negative = inhibition) at 10uM” value came out at 13%. The value for `Cc1cccc(OCc2nnc(SCC(=O)O)n2-c2ccccc2)c1` was 7.17%; that for `Nc1nc2ccc(C(=O)Nc3ccccc3)cc2s1` was 7.6%.

Regarding `CC(Oc1ccc(Cl)cc1)C(=O)N(C)CC(=O)Nc1ccc(N2CCOCC2)cc1` (centres unmarked), the “hERG current change (%, negative = inhibition) at 10uM” value came out at 5.8%.

Consider `CC(=O)O[C@]1(C(C)=O)CCC2C3CCC4=C/C(=N/OCC(=O)O)CC[C@]4(C)C3CC[C@@]21C` (some centres unmarked), for which the “hERG current change (%, negative = inhibition) at 10uM” value is reported as 14.7%.

As for `O=C(NC(=S)Nc1ccccc1Cl)c1cncc(C#Cc2ccccc2)c1`, the “hERG current change (%, negative = inhibition) at 10uM” value worked out at 12.8%.

For `Cc1ccc(NC(=O)CSc2nnc(-c3ccccn3)n2N)cc1F`, the “hERG current change (%, negative = inhibition) at 10uM” value is on record as -48.5%. For `COc1cccc(NC(=O)CSc2nc3ccccc3c(=O)n2C)c1` the value was -7.76%; for `Cc1n[nH]c(C)c1S(=O)(=O)N1CCCC(C(=O)N2CCN(c3ccc(Cl)cc3)CC2)C1` (centres unmarked), -75.1%.

`CCOc1ccc(N(CC(=O)NC(C)C)C(=O)CCC(=O)Nc2ccccn2)cc1`: the “hERG current change (%, negative = inhibition) at 10uM” value is -3.32%.

For `CCCCC1CCC(c2nc(-c3cccnc3)no2)CC1` (centres unmarked), the “hERG current change (%, negative = inhibition) at 10uM” value was 3.51%. For the molecule `CCCN1C2CCCC1CC(NC(=O)c1ccccc1OCC)C2` (centres unmarked), the “hERG current change (%, negative = inhibition) at 10uM” value was -47.2%. For `CN(C)C(CNC(=O)c1ccco1)c1cccs1` (centres unmarked) the value was 3.47%; for `COc1ccc(-c2noc(CSc3nc4ccccc4c(=O)n3-c3ccccc3)n2)cc1OC`, 8.69%.

For the molecule `COCCNc1oc(-c2ccco2)nc1S(=O)(=O)c1ccccc1`, the “hERG current change (%, negative = inhibition) at 10uM” value was determined as 2.69%. `CC1C=CCC2C(=O)N(c3ccc(OC(=O)c4cccs4)cc3)C(=O)C12` (centres unmarked): the “hERG current change (%, negative = inhibition) at 10uM” value is 13.3%. As to `COc1ccc2nc(NC(=O)c3cccs3)sc2c1`, the “hERG current change (%, negative = inhibition) at 10uM” value was 8.71%. For `COc1ccc(NC(=O)Cn2c(C)cc(=O)c3cccc(OC)c32)cc1` the value was 5.8%; for `O=C(O)c1ccccc1C(=O)Nc1ccc(-c2csc(-c3ccccc3)n2)cc1`, 17%; for `CCN1CCN(Cc2ccc(C)cc2)CC1`, -12.5%.

Consider `Cc1nnc(SCC(=O)N2c3ccccc3C(C)(c3ccccc3)CC2(C)C)s1` (centres unmarked), for which the “hERG current change (%, negative = inhibition) at 10uM” value is -18.1%. The value for `O=C(Nc1ccccc1N1CCOCC1)c1cccc(F)c1` was 2.89%; that for `CCOC(=O)c1cnc2ccccc2c1Nc1ccc(C(=O)O)cc1.Cl` was 17.9%. As to `O=C(CNS(=O)(=O)c1ccccc1)OCC(=O)c1ccc(Br)cc1`, the “hERG current change (%, negative = inhibition) at 10uM” value worked out at 14.3%. For `COCCn1c(SCC#N)nnc1-c1ccccc1O` the value was -3.69%; for `COC(=O)Cn1ncc2c(C)n(Cc3ccccc3)c(C)c2c1=O`, -0.356%. The value for `Cc1ccc(OCc2ccc(C(=O)NCC3CCCO3)cc2)cc1` (centres unmarked) was 32.4%; that for `Cn1cc(C(=O)c2ccc(Cl)cc2Cl)cc1C(=O)N/N=C(\N)COc1cccc(C(F)(F)F)c1` was -4.61%.
